B1: UUCACGA (DNA:RNA)
RNA: GGGAGACCGGAAUUCAGAUUGUCCUUCACGAUUAAAUCCCGUCGUAGCCACCA
DNA 1: CAATCTGAATTCCGGTCTCCC
DNA 2: TGGTGGCTACGACGGGATT
B2: AUUACCU (DNA:RNA)
RNA: B1 RNA with U25A, C27U, G30C, A31U
DNA 1: CAATCTGAATTCCGGTCTCCC
DNA 2: TGGTGGCTACGACGGGATT
B3: UAACUAU (DNA:RNA)
RNA: B1 RNA with U26A, C27A, A28C, C29U, G30A, A31U
DNA 1: CAATCTGAATTCCGGTCTCCC
DNA 2: TGGTGGCTACGACGGGATT
B4: UGGGGAC (DNA:RNA)
RNA: B1 RNA with U26G, C27G, A28G, C29G, G30A, A31C
DNA 1: CAATCTGAATTCCGGTCTCCC
DNA 2: TGGTGGCTACGACGGGATT
B5: CGAGAUU (DNA:RNA)
RNA: GGGAGACCGGAAUUCAGAUUGUCCCGAGAUUUUAAAUCCCGUCGUAGCCACCA
DNA 1: CAATCTGAATTCCGGTCTCCC
DNA 2: TGGTGGCTACGACGGGATT
B6: AUGAAUA (DNA:RNA)
RNA: B1 RNA with U25A, C27G, C29A, G30U
DNA 1: CAATCTGAATTCCGGTCTCCC
DNA 2: TGGTGGCTACGACGGGATT
B7: ACAAUAG (DNA:RNA)
RNA: B5 RNA with C25A, G26C, G28A, A29U, U30A, U31G
DNA 1: CAATCTGAATTCCGGTCTCCC
DNA 2: TGGTGGCTACGACGGGATT
B8: GACAUUU (DNA:RNA)
RNA: B5 RNA with C25G, G26A, A27C, G28A, A29U
DNA 1: CAATCTGAATTCCGGTCTCCC
DNA 2: TGGTGGCTACGACGGGATT
B9: UAGUCUU (DNA:RNA)
RNA: B5 RNA with C25U, G26A, A27G, G28U, A29C
DNA 1: CAATCTGAATTCCGGTCTCCC
DNA 2: TGGTGGCTACGACGGGATT
B10: UGGAGAC (DNA:RNA)
RNA: B1 RNA with U26G, C27G, C29G, G30A, A31C
DNA 1: CAATCTGAATTCCGGTCTCCC
DNA 2: TGGTGGCTACGACGGGATT
B11: UAGUGCG (DNA:RNA)
RNA: B1 RNA with U26A, C27G, A28U, C29G, G30C, A31G
DNA 1: CAATCTGAATTCCGGTCTCCC
DNA 2: TGGTGGCTACGACGGGATT
B12: CAUUACC (DNA:RNA)
RNA: B5 RNA with G26A, A27U, G28U, U30C, U31C
DNA 1: CAATCTGAATTCCGGTCTCCC
DNA 2: TGGTGGCTACGACGGGATT
B13: CCGCCCC (DNA:RNA)
RNA: B5 RNA with G26C, A27G, G28C, A29C, U30C, U31C
DNA 1: CAATCTGAATTCCGGTCTCCC
DNA 2: TGGTGGCTACGACGGGATT
B14: CCGGCUC (DNA:RNA)
RNA: B5 RNA with G26C, A27G, A29C, U31C
DNA 1: CAATCTGAATTCCGGTCTCCC
DNA 2: TGGTGGCTACGACGGGATT
B15: GUUAAAU (DNA:RNA)
RNA: B5 RNA with C25G, G26U, A27U, G28A, U30A
DNA 1: CAATCTGAATTCCGGTCTCCC
DNA 2: TGGTGGCTACGACGGGATT
B16: GUACAAC (DNA:RNA)
RNA: B5 RNA with C25G, G26U, G28C, U30A, U31C
DNA 1: CAATCTGAATTCCGGTCTCCC
DNA 2: TGGTGGCTACGACGGGATT
B17: AUGCAUA (DNA:RNA)
RNA: B5 RNA with C25A, G26U, A27G, G28C, U31A
DNA 1: CAATCTGAATTCCGGTCTCCC
DNA 2: TGGTGGCTACGACGGGATT
B18: AUAACGU (DNA:RNA)
RNA: B1 RNA with U25A, C27A, A31U
DNA 1: CAATCTGAATTCCGGTCTCCC
DNA 2: TGGTGGCTACGACGGGATT
B19: CGACUGA (DNA:RNA)
RNA: B5 RNA with G28C, A29U, U30G, U31A
DNA 1: CAATCTGAATTCCGGTCTCCC
DNA 2: TGGTGGCTACGACGGGATT
B20: ACACGCU (DNA:RNA)
RNA: B5 RNA with C25A, G26C, G28C, A29G, U30C
DNA 1: CAATCTGAATTCCGGTCTCCC
DNA 2: TGGTGGCTACGACGGGATT
B21: GAAAGCU (DNA:RNA)
RNA: B5 RNA with C25G, G26A, G28A, A29G, U30C
DNA 1: CAATCTGAATTCCGGTCTCCC
DNA 2: TGGTGGCTACGACGGGATT
B22: GCGGUUA (DNA:RNA)
RNA: B5 RNA with C25G, G26C, A27G, A29U, U31A
DNA 1: CAATCTGAATTCCGGTCTCCC
DNA 2: TGGTGGCTACGACGGGATT
B23: UUAGUUC (DNA:RNA)
RNA: B5 RNA with C25U, G26U, A29U, U31C
DNA 1: CAATCTGAATTCCGGTCTCCC
DNA 2: TGGTGGCTACGACGGGATT
B24: UGUCCGC (DNA:RNA)
RNA: B1 RNA with U26G, C27U, A28C, A31C
DNA 1: CAATCTGAATTCCGGTCTCCC
DNA 2: TGGTGGCTACGACGGGATT
B25: CUCACCC (DNA:RNA)
RNA: B1 RNA with U25C, G30C, A31C
DNA 1: CAATCTGAATTCCGGTCTCCC
DNA 2: TGGTGGCTACGACGGGATT
B26: GCCGGGA (DNA:RNA)
RNA: B1 RNA with U25G, U26C, A28G, C29G
DNA 1: CAATCTGAATTCCGGTCTCCC
DNA 2: TGGTGGCTACGACGGGATT
B27: UGACUCA (DNA:RNA)
RNA: B5 RNA with C25U, G28C, A29U, U30C, U31A
DNA 1: CAATCTGAATTCCGGTCTCCC
DNA 2: TGGTGGCTACGACGGGATT
B28: UCUCUUG (DNA:RNA)
RNA: B5 RNA with C25U, G26C, A27U, G28C, A29U, U31G
DNA 1: CAATCTGAATTCCGGTCTCCC
DNA 2: TGGTGGCTACGACGGGATT
B29: AAUUCCU (DNA:RNA)
RNA: B5 RNA with C25A, G26A, A27U, G28U, A29C, U30C
DNA 1: CAATCTGAATTCCGGTCTCCC
DNA 2: TGGTGGCTACGACGGGATT
B30: AAAACCU (DNA:RNA)
RNA: B5 RNA with C25A, G26A, G28A, A29C, U30C
DNA 1: CAATCTGAATTCCGGTCTCCC
DNA 2: TGGTGGCTACGACGGGATT
B31: UUUAUGC (DNA:RNA)
RNA: B1 RNA with C27U, C29U, A31C
DNA 1: CAATCTGAATTCCGGTCTCCC
DNA 2: TGGTGGCTACGACGGGATT

Positions count from the first letter of the chain named. Some of the results follow.

The target in the test is T1, RBFOX1 RRM RbFoxmut (Fox-RRM*) (Homo sapiens, UniProt Q9NWB1 109-208, R118D;E147R;N151S;E152T).
T1 sequence: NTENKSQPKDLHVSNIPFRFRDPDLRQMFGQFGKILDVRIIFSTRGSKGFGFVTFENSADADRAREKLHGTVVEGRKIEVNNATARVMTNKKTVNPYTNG
The experiment in a line: EMSA; HiTS-Eq, 1 nM pool, 10 min; buffer printed only for the single-RNA assays: 10 mM Tris pH 7.5, 150 mM NaCl, 3.4 mM EDTA, 0.001% NP-40, 30 C. The following applies: tags: His6 N-terminal (pET28a); label: 5' 32P. In outline:
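Purified RbFox RRM, wild type or mutant, was incubated for 10 min in 50 µL with 1 nM of a 5′-radiolabelled RNA pool carrying 7 randomized nucleotides, whose flanks were annealed to DNA oligonucleotides, over a series of increasing protein concentrations. Unbound RNA was resolved on 8% native PAGE, cut out, reverse-transcribed, barcoded by PCR and sequenced on an Illumina HiSeq 2500. Relative association constants were derived from changes in read counts for each RNA species versus the control reaction and normalised to the cognate motif.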
For orientation: In EMSA bound probe runs differently from free probe, usually more slowly.
Turning to B1, the binding signal is 0.079 KA relative to UGCAUGU. For B2, the binding signal was 0.133 KA relative to UGCAUGU.

As to B3, the binding signal is 0.0483 KA relative to UGCAUGU. With B4, the binding signal was 0.0636 KA relative to UGCAUGU.

B5: the binding signal was 0.0702 KA relative to UGCAUGU. The value for B6 was 0.161 KA relative to UGCAUGU. B7: the binding signal was 0.0878 KA relative to UGCAUGU. For the molecule B8, the binding signal was 0.086 KA relative to UGCAUGU. Take B9: the binding signal is 0.0742 KA relative to UGCAUGU.

For the molecule B10, the binding signal was 0.0876 KA relative to UGCAUGU. With B11 the figure was 0.136 KA relative to UGCAUGU; with B12, 0.103 KA relative to UGCAUGU. Turning to B13, the binding signal was 0.0683 KA relative to UGCAUGU. For B14, the binding signal was 0.061 KA relative to UGCAUGU. The value for B15 was 0.0819 KA relative to UGCAUGU.

Turning to B16, the binding signal is 0.0612 KA relative to UGCAUGU.

Take B17: the binding signal was 0.161 KA relative to UGCAUGU. Regarding B18, the binding signal was 0.107 KA relative to UGCAUGU. The value for B19 was 0.144 KA relative to UGCAUGU. With B20 the figure was 0.085 KA relative to UGCAUGU; with B21, 0.0545 KA relative to UGCAUGU. On to B22, for which the binding signal is 0.131 KA relative to UGCAUGU. On to B23, for which the binding signal is 0.0952 KA relative to UGCAUGU. Regarding B24, the binding signal is 0.11 KA relative to UGCAUGU. The value for B25 was 0.0858 KA relative to UGCAUGU; that for B26 was 0.117 KA relative to UGCAUGU. For the molecule B27, the binding signal was 0.133 KA relative to UGCAUGU.

On to B28, for which the binding signal is 0.103 KA relative to UGCAUGU. Turning to B29, the binding signal is 0.0468 KA relative to UGCAUGU. Take B30: the binding signal is 0.0698 KA relative to UGCAUGU. Take B31: the binding signal is 0.134 KA relative to UGCAUGU.

Source of the values: PMC9911399, “Two distinct binding modes provide the RNA-binding protein RbFox with extraordinary sequence specificity”.
